Results reported in a collection of fitness landscapes (doi:10.1016/j.celrep.2020.107928).
In all, about 81,000 sequences were measured (“one-hybrid fitness for binding parS DNA”: median about -0.17, highest 2% from about 0.51 on). The list shows a part of the results.

B1: Caulobacter ParB omega fusion; a variant is named by its letters at X, in order, B8GW30 (parent)
chain: MESVVVGEPGMSEGRRGLGRGLSALLGEVDAAPAQAPGEQLGGSREAPIEILQRNPDQPRRTFREEDLEDLSNSIREKGVLQPILVRPSPDTAGEYQIVAGERAWRAAQRAGLKTVPIMVRELDDLAVLEIGIIENVQRADLNVLEEALSYKVLMEKFERTQENIAQTIGKSXSHVANXMRLLXLPDEVQSYLVSGELTAXHARAIAAAADPVALAKQIIEGGLSVRETEALARKAPNLSAGKSKGGRPPRVKDTDTQALESDLSSVLGLDVSIDHRGSTGTLTITYATLEQLDDLCNRLTRGI

Variants of: B1
Assay: one-hybrid fitness for binding parS DNA (scaled: cognate 1, non-cognate 0); higher = stronger binding
Details: with parS DNA site
Outline: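 On M9-minus-histidine containing 0.1 mM IPTG and 5 mM 3-AT, E. coli USO cells with a HIS3 reporter, site 19 bp from the promoter, grew 48 hours at 37°C to select Caulobacter ParB libraries randomised at four specificity codons. Plasmids from before and after were Illumina-sequenced, with three replicate libraries pooled and variants under 10 reads left out. Fitness is the log change in variant-to-wild-type read ratio, rescaled against cognate and non-cognate.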

one-hybrid fitness for binding parS DNA, ≤ 0.2:
HFDY
NYIV
LLPD
QMTQ
TTES
VRGC
MNGS
EPLG
RCIV
EPSN
WPTC
TIRL
LYHN
LARL
TWPC
HPRE
SSFM
EASI
PMNK
LQIK
PHPE
VTDD
PSDQ
HLKL
SNWS
YHHH
MWAT
HDDC
DCES
ALVA
SKYV
QRHH
MPAT
EAWG
PDDG
LYCG
GFDR
HHHG
MTSQ
PGRL
QGVW
CCRF
VKWC
IKIA
GLCA
LEGA
IWLG
INDV
ETNP
MRHH
CVFS
NFPV
MSSY
TSAR
KQRD
NRRS
MFAC
KKWG
ERLH
RCMQ
LPKW
MYAF
CTAR
HFSN
ALWW
QPVL
VRPR
TPVW
SLLR
AGIT
CTHQ
KFTV
CAIY
PRNE
ETHS
HLLV
AQDR
QYLV
AVHD
FSNL
GHCR
PGKY
ALYG
TVKQ
CPCW
WMNY
LEQM
LHFS
LAQN
HPPW
GRLS
HPRR
KRTG
FAVS
EMNL

one-hybrid fitness for binding parS DNA, 0.777:
RFIS

one-hybrid fitness for binding parS DNA, 0.213:
WKIT

one-hybrid fitness for binding parS DNA, 0.226:
EKRF
